These are yes or no findings as the source states them, for the method shown. In cells and extracts the contact can be indirect. Some results given as binding are weak or reduced against the parent protein; the word gives no strength. Where a sequence is shown, tags or fusion partners need not be part of it.
Key:
Experiment in all cases: co-IP; HEK293T cells transiently cotransfected for 48 h; lysates in 50 mM Tris-HCl pH 8.0, 150 mM NaCl, 5 mM EDTA, 0.5% NP-40; Snail2-HA precipitated overnight with anti-HA antibodies and sepharose G beads (NCoR panels) or anti-HA affinity matrix (CtBP1 panels); Western blot with anti-flag and anti-HA
[1] = target: T1, Snail2-HA ΔSLUG mutant (mouse) (UniProt P97469)
T1 sequence: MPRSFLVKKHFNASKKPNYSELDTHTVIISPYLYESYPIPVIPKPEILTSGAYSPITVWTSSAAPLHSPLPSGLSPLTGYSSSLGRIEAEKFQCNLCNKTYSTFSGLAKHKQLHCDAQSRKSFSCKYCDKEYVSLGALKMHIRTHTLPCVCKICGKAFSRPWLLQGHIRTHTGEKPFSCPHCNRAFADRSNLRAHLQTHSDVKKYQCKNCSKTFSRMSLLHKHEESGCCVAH

Sequences of proteins named here, by UniProt entry; tags and fusion partners are left off.
UniProt Q60974: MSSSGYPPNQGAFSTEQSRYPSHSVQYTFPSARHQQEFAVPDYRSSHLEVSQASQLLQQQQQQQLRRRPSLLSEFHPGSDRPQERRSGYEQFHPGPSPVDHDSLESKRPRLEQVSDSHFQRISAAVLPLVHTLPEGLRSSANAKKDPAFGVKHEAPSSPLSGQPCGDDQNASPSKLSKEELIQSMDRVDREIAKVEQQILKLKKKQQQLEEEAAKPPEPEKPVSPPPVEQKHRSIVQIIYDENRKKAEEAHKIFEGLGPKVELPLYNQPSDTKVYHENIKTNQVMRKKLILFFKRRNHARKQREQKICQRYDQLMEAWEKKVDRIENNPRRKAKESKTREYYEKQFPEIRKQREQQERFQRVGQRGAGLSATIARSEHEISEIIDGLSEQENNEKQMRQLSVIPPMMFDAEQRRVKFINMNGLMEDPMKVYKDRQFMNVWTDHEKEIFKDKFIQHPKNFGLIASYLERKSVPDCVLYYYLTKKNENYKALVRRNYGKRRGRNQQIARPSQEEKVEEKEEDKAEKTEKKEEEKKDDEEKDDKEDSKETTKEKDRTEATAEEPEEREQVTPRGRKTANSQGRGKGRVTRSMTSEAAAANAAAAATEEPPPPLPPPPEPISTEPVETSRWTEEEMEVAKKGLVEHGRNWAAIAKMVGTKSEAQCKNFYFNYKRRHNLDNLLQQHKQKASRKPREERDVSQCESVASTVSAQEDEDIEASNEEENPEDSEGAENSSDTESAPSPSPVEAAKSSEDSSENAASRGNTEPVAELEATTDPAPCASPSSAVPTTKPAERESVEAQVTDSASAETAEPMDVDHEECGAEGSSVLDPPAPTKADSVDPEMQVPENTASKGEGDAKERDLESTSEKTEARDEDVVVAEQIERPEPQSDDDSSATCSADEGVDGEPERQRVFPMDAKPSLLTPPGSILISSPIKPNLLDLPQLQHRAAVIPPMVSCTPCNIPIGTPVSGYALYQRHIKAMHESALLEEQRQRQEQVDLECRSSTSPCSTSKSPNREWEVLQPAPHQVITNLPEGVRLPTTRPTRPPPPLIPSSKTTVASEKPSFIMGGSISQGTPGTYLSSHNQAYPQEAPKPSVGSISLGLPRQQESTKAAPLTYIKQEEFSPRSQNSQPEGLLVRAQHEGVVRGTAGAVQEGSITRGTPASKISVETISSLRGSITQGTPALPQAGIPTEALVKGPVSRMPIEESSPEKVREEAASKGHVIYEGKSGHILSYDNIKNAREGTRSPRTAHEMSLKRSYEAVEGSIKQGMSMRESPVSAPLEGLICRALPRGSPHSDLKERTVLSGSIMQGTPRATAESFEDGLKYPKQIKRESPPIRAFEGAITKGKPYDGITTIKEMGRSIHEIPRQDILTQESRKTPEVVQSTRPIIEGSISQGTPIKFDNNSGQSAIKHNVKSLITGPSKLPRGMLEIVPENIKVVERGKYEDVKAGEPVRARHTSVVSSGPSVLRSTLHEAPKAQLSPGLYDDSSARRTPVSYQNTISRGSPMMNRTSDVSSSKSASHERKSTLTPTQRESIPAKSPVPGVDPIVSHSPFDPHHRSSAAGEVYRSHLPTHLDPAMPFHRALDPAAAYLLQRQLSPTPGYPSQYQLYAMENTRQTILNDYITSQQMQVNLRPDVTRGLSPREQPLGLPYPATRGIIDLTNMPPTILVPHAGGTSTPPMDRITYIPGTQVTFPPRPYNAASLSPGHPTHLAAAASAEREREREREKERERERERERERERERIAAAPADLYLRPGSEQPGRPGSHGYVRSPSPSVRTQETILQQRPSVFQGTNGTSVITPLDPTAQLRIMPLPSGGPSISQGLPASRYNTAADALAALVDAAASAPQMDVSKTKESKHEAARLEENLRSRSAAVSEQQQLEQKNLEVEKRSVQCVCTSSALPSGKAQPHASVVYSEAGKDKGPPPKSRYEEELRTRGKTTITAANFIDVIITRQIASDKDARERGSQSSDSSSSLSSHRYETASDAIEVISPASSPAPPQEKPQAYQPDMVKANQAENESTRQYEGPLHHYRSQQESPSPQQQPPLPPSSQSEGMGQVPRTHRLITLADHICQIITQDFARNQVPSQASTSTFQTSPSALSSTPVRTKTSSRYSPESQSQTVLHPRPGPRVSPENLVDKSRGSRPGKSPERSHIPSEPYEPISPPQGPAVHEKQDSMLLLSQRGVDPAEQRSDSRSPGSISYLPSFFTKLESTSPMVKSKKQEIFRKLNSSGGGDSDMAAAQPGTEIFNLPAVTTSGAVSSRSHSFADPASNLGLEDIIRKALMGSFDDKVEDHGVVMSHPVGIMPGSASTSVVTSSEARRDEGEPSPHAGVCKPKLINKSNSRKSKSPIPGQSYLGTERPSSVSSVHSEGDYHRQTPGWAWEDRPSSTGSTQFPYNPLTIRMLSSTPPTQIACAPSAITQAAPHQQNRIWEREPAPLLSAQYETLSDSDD

[2] = target: T2, Snail2-HA wild type (mouse) (UniProt P97469)
T2 sequence: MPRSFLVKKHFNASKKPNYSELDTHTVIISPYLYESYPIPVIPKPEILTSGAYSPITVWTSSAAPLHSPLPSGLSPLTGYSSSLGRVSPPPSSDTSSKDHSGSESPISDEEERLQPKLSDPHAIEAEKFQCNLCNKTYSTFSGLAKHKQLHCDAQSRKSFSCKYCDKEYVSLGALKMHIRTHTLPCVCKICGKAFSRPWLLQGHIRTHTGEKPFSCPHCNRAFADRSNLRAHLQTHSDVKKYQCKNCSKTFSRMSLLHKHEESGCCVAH

[3] = target: T3, Snail2-HA ΔSNAG mutant (mouse) (UniProt P97469)
T3 sequence: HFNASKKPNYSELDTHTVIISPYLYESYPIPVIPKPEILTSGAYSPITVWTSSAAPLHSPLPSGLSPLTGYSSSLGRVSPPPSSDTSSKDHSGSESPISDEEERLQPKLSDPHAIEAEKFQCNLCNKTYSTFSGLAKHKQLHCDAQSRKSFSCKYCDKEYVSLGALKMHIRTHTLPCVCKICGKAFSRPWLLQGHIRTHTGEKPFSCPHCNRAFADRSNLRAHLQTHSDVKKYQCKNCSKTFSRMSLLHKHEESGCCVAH

Row | binding [1] | binding [2] | binding [3] | Substance
1 | binds | binds | no binding | NCoR-flag (from UniProt Q60974 1-2453)
2 | no binding | binds | binds | CtBP1-flag (from UniProt O88712 1-441)
